Assay results: PubChem BioAssay (NCATS)
This list was built around the results that the source calls inconclusive (neither active nor inactive); the mix of calls is not that of the screen. For some assays here: No potency is given beside an inconclusive call; the fits are too rough. The source made the active and inactive calls. Calls follow the shape of the dose curve; as a rule, active = well fitted curve in the direction sought with a large enough effect; inconclusive = small, poorly fitted or top-dose-only effect, or another doubt; inactive = no such curve, though single readings can be large; an effect the other way counts as inactive or inconclusive.

Assays:
[1] = target: Rap guanine nucleotide exchange factor 3 (Homo sapiens) (UniProt O95398); experiment: Confirmatory qHTS for antagonist of cAMP-regulated guanine nucleotide exchange factor 3 (EPAC1) (AID 1645880); details: EPAC1 Rap1B-BODIPY-GDP exchange, fluorescence; activity, negative = inhibition: at 115 µM (top of the series); also: nearly all actives have a fitted effect of over 55% in size; also: potency is read from the fitted curve at half-maximal effect;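 as to activity, negative = inhibition: plate controls were DMSO only for no effect and full effect of the ATA control for full effect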
How it was run: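 Nucleotide exchange uses 100 nM EPAC1, 250 nM RAP1B-BODIPY-GDP and 50 uM GDP, with compounds in a concentration-titration series. After 5 min at room temperature, fluorescence (480 nm ex/540 nm em) is read every 5 min for 30 min. Data are normalized to control ATA and DMSO.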

[2] = target: Rap guanine nucleotide exchange factor 3 (Homo sapiens) (UniProt O95398); experiment: Confirmatory qHTS for agonist of cAMP-regulated guanine nucleotide exchange factor 3 (EPAC1) (AID 1645881); details: EPAC1 Rap1B BODIPY-GDP exchange fluorescence; activation: at 154 µM (top of the series), 100% = cAMP control response; also: nearly all actives have a fitted effect of over 75% in size; also: potency is read from the fitted curve at half-maximal effect;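 as to activation: EPAC1 catalysed release of BODIPY-GDP from Rap1B seen as fluorescence loss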
[3] = target: Rap guanine nucleotide exchange factor 4 (Homo sapiens) (UniProt Q8WZA2); experiment: Confirmatory qHTS for agonist of cAMP-regulated guanine nucleotide exchange factor 4 (EPAC2) (AID 1645884); details: EPAC2 GEF activity, Rap1B-BODIPY-GDP fluorescence; activation: at 154 µM (top of the series), percent relative to cAMP agonist control;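 also: nucleotide exchange releases bodipy-GDP from Rap1 and this lowers its fluorescence; nearly all actives have a fitted effect of over 65% in size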; also: potency is read from the fitted curve at half-maximal effect; as to activation: % is scaled to controls: 0 for no effect and ±100 for the full control effect
[4] = target: Rap guanine nucleotide exchange factor 3 (Homo sapiens) (UniProt O95398); experiment: Counterscreen qHTS for agonist of cAMP-regulated guanine nucleotide exchange factor 3 (EPAC1) (AID 1645889); details: EPAC1 Rap1B-BODIPY-GDP exchange, fluorescence; activation: at 154 µM (top of the series) unless noted; also: nearly all actives have a fitted effect of over 40% in size; also: potency is read from the fitted curve at half-maximal effect; as to activation: % of control where 0% means no effect
How it was run: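 Rap1B–BODIPY-GDP (250 nM) with 50 uM GDP; compounds pin-transferred to 9.74 nM–152 uM final (activator) or from 7.32 nM upwards (inhibitor). Fluorescence Ex/Em 480/540 nm read at 5 and 30 min, then after adding cAMP or buffer, at room temperature.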

[5] = target: Lethal(3)malignant brain tumor-like protein 1 (Homo sapiens) (UniProt Q9Y468); experiment: qHTS Assay for the Inhibitors of L3MBTL1: Hit Validation (AID 540279); details: L3MBTL1 methyl-lysine binding inhibition, biochemical qHTS; also: potency is read from the fitted curve at half-maximal effect; nearly all actives have a fitted effect of over 70% in size
How it was run: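 L3MBTL1 (50 nM final) preformed 30 min with biotinylated H3(1-15)K9me1 peptide (75 nM), then compound 30 min at room temperature. Streptavidin donor and nickel chelate acceptor AlphaScreen beads (10 ug/mL each final) added for 30 min before read.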

[6] = qHTS Assay for the Inhibitors of L3MBTL1: Hit Validationin AlphaScreen Counterscreen (AID 602224); also: potency is read from the fitted curve at half-maximal effect
How it was run: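 Bead-bridging control using 1 nM b-His6 linking streptavidin donor and nickel chelate acceptor beads (10 ug/mL each, final). Compound exposure 15 min, then beads, 30 min dark incubation at room temperature before AlphaScreen reading.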

[7] = target: DNA polymerase kappa (Homo sapiens) (UniProt Q9UBT6); experiment: qHTS for Inhibitors of Polymerase Kappa: Confirmatory Assay for Cherry-picked Compounds (AID 720501); details: purified Pol-kappa, fluorescent strand-displacement substrate; also: potency is read from the fitted curve at half-maximal effect
How it was run: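 10 nM human Pol-kappa was preincubated with compound 15 min at room temperature, then 50 nM (final) primer/template substrate with TAMRA-labeled reporter strand and BHQ-2-labeled template added. Fluorescence (Ex 525, Em 598 nm) read at 0 and 10 min.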

[8] = target: DNA polymerase eta (Homo sapiens) (UniProt Q9Y253); experiment: qHTS for Inhibitors of Polymerase Eta: Confirmatory Assay for Cherry-picked Compounds (AID 720502); details: Pol eta primer extension, TAMRA/BHQ fluorescence, 10 min; also: potency is read from the fitted curve at half-maximal effect
How it was run: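 10 nM Pol eta + cpd, 15 min RT; start w/ 50 nM final primer/TAMRA-reporter/BHQ-2-template substrate; kinetic read 0 and 10 min, ex 525/em 598 nm. Buffer-only wells = negative control.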

[9] = target: Tumor susceptibility gene 101 protein (Homo sapiens) (UniProt Q99816); experiment: qHTS Assay for Iinhibitors of HIV-1 Budding by Blocking the Interaction of PTAP/TSG101: Hit Validation (AID 651600); also: % is scaled to controls: 0 for no effect and ±100 for the full control effect; nearly all actives have a fitted effect of over 70% in size
How it was run: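 Fluorescence polarization binding assay: Tsg101 binding domain (10 uM) mixed with compounds and FITC-labeled PTAP peptide (50 nM) in HEPES pH 7.5, 0.15 M NaCl, 0.01% Tween 20, EDTA, TCEP; 20 min at r.t.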
Tags tell the direction and shape of the fitted curve.

Sequence of UniProt O95398 (O95398 whole entry, looked up): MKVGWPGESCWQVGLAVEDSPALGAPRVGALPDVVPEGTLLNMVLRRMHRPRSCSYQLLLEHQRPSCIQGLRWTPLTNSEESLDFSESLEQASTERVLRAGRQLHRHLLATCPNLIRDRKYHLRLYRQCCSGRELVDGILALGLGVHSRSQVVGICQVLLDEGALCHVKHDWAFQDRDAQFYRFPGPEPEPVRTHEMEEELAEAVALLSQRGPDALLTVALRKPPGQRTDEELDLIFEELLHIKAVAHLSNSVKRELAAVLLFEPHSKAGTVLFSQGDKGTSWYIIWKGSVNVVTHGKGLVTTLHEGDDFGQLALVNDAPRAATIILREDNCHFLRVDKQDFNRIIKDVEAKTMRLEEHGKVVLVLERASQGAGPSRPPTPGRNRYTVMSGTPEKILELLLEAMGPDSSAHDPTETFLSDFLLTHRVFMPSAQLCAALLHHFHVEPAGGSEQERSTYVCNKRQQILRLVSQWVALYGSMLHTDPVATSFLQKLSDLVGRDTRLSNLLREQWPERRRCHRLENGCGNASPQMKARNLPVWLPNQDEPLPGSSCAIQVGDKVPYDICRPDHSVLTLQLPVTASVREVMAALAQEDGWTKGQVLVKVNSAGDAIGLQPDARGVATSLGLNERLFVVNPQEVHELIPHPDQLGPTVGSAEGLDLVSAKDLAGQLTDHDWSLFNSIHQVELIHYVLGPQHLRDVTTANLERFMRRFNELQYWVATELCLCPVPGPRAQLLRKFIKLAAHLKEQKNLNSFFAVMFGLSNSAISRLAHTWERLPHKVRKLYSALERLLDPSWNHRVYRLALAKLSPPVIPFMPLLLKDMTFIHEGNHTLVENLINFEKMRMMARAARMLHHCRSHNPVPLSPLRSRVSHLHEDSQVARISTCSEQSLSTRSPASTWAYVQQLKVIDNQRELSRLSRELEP
Sequence of UniProt Q8WZA2 (Q8WZA2 whole entry, looked up): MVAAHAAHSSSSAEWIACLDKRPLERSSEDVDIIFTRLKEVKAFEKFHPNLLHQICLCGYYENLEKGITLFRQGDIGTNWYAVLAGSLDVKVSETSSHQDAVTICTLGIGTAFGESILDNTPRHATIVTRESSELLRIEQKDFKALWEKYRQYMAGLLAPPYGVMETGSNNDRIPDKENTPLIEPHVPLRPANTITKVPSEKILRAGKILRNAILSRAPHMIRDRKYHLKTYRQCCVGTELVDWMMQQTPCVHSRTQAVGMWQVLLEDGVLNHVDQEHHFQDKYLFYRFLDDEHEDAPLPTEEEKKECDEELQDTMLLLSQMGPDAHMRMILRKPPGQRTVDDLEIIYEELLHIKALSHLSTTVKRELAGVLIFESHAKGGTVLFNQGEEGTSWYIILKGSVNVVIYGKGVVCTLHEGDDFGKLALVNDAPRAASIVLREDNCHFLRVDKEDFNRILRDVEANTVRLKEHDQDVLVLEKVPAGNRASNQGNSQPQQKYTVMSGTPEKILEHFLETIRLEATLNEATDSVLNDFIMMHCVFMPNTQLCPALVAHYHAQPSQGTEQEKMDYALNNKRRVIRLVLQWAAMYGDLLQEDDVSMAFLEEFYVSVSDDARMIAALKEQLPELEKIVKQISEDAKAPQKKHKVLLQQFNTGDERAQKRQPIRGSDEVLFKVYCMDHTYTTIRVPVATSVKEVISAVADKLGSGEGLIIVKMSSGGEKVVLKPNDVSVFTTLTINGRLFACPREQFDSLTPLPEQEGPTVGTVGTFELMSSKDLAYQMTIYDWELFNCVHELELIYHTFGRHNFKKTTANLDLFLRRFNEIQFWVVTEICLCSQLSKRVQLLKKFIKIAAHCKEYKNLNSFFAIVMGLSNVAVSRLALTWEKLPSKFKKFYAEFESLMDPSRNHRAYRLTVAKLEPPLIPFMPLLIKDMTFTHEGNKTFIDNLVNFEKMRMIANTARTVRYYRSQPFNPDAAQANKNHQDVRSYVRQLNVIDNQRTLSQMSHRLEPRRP
Sequence of UniProt Q9Y468 (Q9Y468 whole entry, looked up): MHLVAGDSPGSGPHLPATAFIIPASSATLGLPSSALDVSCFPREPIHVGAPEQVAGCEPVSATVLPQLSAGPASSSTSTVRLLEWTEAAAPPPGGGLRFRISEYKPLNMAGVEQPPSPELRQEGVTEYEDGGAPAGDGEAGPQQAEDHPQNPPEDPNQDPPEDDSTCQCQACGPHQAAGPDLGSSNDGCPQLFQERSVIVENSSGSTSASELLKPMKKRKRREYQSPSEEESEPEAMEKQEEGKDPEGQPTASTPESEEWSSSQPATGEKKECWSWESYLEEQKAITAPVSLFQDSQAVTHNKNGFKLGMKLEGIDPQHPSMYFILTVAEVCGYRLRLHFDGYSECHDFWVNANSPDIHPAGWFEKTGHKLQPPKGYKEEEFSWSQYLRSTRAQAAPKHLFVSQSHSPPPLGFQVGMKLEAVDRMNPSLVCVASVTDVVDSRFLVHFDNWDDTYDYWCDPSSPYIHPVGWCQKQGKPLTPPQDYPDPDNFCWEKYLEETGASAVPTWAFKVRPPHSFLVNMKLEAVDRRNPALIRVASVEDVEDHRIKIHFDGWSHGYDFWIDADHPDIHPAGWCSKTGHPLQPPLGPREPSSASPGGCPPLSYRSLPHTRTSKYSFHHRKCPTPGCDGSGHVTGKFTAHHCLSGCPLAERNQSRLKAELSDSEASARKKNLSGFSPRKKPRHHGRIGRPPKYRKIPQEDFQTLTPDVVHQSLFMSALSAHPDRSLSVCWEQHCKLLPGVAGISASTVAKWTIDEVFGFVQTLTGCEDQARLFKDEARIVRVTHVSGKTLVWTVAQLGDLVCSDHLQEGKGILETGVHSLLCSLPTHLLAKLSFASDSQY
Sequence of UniProt Q9Y253 (Q9Y253 whole entry, looked up): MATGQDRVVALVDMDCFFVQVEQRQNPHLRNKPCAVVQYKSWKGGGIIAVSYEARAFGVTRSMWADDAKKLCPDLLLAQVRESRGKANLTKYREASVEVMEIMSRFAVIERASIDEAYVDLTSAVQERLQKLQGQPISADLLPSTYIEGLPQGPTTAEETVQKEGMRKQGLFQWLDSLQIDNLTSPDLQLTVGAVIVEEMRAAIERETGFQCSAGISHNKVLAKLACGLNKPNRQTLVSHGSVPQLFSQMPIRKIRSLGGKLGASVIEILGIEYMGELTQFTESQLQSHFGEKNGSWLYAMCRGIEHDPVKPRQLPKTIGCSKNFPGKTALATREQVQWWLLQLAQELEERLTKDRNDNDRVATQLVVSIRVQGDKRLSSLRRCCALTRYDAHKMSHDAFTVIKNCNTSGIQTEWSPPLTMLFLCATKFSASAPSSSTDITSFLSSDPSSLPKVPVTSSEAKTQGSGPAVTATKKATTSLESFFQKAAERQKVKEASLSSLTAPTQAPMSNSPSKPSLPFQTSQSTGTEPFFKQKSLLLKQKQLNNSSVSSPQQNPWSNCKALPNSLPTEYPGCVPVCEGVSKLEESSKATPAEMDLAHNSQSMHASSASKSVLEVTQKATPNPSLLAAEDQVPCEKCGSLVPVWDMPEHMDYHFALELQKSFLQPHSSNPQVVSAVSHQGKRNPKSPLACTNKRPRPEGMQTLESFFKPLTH
Sequence of UniProt Q9UBT6 (Q9UBT6 whole entry, looked up): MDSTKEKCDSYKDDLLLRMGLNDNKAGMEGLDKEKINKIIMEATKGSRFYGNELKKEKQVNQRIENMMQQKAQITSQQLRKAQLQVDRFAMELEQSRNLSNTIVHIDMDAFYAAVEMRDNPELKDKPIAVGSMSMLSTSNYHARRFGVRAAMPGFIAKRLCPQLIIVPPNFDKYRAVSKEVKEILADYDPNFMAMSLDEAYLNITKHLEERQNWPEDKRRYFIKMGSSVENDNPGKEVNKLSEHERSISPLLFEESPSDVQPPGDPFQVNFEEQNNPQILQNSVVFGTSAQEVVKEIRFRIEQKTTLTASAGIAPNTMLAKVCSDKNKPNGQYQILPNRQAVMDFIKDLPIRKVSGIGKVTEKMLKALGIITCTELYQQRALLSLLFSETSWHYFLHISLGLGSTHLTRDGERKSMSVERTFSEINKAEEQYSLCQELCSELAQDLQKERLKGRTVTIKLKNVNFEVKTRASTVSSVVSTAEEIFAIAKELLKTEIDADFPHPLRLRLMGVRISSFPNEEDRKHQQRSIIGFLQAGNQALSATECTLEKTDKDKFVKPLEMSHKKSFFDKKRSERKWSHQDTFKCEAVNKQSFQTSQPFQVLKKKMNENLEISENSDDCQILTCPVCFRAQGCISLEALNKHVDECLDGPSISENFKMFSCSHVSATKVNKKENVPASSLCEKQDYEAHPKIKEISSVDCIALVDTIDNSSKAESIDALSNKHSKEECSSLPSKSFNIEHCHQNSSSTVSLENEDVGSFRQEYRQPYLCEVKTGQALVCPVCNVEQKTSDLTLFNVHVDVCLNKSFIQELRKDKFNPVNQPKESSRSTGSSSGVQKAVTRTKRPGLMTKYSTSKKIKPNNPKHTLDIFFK
Sequence of UniProt Q99816 (Q99816 whole entry, looked up, the tested form may be a part): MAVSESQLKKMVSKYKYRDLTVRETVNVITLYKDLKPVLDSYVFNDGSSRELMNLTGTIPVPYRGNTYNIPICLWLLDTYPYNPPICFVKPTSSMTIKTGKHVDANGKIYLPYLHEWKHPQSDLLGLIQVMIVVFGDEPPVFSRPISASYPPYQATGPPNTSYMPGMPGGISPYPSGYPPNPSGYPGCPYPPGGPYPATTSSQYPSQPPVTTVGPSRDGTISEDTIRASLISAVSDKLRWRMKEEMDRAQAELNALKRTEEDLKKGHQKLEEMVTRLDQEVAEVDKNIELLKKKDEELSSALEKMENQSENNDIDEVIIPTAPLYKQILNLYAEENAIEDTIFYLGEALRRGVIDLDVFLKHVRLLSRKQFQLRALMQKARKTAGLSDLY

## CC1CCCN(C(=O)c2ccc(-c3ccccc3Cl)o2)C1 (stereo not drawn)
[1]
  Potency: inconclusive [inhibitor, partial curve, poor fit]
[2]
  Potency: inconclusive [activator, partial curve]
[3]
  Potency: inconclusive [activator, partial curve]
[4]
  activation: inconclusive: 47.9% [activator]

## Oc1ccc(Cl)cc1CNc1cccc2cccnc12
[1]
  Potency: inconclusive [inhibitor, single point]
[2]
  Potency: inconclusive [activator, partial curve, poor fit]
[3]
  Potency: inconclusive [activator, partial curve]
[4]
  Potency: inconclusive [activator, partial curve, poor fit]

## CC[n+]1ccc(/C=C/c2c[nH]c3ccccc23)cc1
[1]
  Potency: inactive
[2]
  Potency: inconclusive [activator, single point]
[3]
  Potency: inconclusive [activator, single point]
[4]
  Potency: active: 44.7 µM

## CCN(CC)c1ccc2cc(C=O)c(=O)oc2c1
[1]
  Potency: inactive
[2]
  Potency: inconclusive [activator, partial curve, poor fit]
[3]
  activation: inactive: 6.38% [at 17.1 µM, percent relative to cAMP agonist control]
[4]
  Potency: active: 12.6 µM

## CCN1CCN(Cc2c(O)ccc3c2O/C(=C\C=C\c2ccccc2OC)C3=O)CC1
[1]
  Potency: inactive
[2]
  Potency: inconclusive [activator, partial curve, poor fit]
[3]
  activation: inactive: 5.66% [at 17.1 µM, percent relative to cAMP agonist control]
[4]
  Potency: inconclusive [activator, single point]

## O=c1c2ccccc2c(C=Nc2ccc(O)cc2)c(O)n1-c1nccs1
[1]
  Potency: inconclusive [inhibitor, single point]
[2]
  Potency: inactive
[3]
  Potency: inconclusive [activator, single point]
[4]
  Potency: inconclusive [activator, partial curve, poor fit]

## Cn1ccc(=Nc2ccc(NC(=O)c3ccc(N=c4ccn(C)c5ccc([N+](=O)[O-])cc45)cc3)cc2)cc1
[5]
  Potency: inconclusive [inhibitor, single point]
[6]
  Potency: inconclusive [inhibitor, single point]
[7]
  Potency: active: 4.23 µM
[8]
  Potency: inconclusive [inhibitor, partial curve, poor fit]
[1]
  Potency: active: 42.6 µM
[2]
  Potency: inconclusive [activator, partial curve]
[3]
  Potency: inconclusive [activator, full curve]
[4]
  Potency: inconclusive [activator, partial curve, poor fit]

## O=c1c(/C=C(\O)c2ccc(F)cc2)nc2ccccc2n1-c1ccccc1
[9]
  Potency: inactive
[1]
  Potency: inactive
[2]
  Potency: inconclusive [activator, partial curve, poor fit]
[3]
  Potency: active: 100 µM
[4]
  activation: inconclusive: 44.4% [activator]

## O=S(=O)(c1ccc2[nH]c3c(c2c1)CCCC3)N1CCCCC1
[1]
  Potency: inconclusive [inhibitor, full curve]
[2]
  Potency: inconclusive [activator, partial curve, poor fit]
[3]
  Potency: inconclusive [activator, partial curve, poor fit]
[4]
  Potency: inconclusive [activator, partial curve, poor fit]

## COC(=O)C(C)Sc1nc2ccsc2c(=O)n1Cc1ccccc1 (stereo not drawn)
[1]
  Potency: inconclusive [inhibitor, partial curve, poor fit]
[2]
  Potency: inconclusive [activator, partial curve, poor fit]
[3]
  Potency: inconclusive [activator, partial curve, poor fit]
[4]
  Potency: inconclusive [activator, full curve, poor fit]

## CC(C)CCN1C(=O)c2cccc3c(N)ccc(c23)C1=O
[1]
  Potency: inactive
[2]
  Potency: inconclusive [activator, full curve, poor fit]
[3]
  Potency: inconclusive [activator, partial curve]
[4]
  Potency: active: 12.6 µM

## COc1ccc(CCNC(=S)N2CCN(S(=O)(=O)c3ccc(F)cc3)CC2)cc1
[1]
  Potency: inactive
[2]
  Potency: inconclusive [activator, single point]
[3]
  Potency: inconclusive [activator, single point]
[4]
  Potency: inconclusive [activator, single point]
